Results are given in words; binding and its absence hold for the method and conditions named. In cells and extracts the contact can be indirect. Some binding calls cover weakened binding; strength is not graded here.
Legend:
[1] = biological target: endogenous BRCA1 (human (endogenous in HCT116, HeLa)) (UniProt P38398); experiment: co-IP; endogenous BRCA1 immunoprecipitated with an anti-BRCA1 antibody (D-9) and protein G beads from HCT116 lysate, immunoblot with anti-IARS1
[2] = biological target: Flag-tagged EPRS1 mutant lacking the hairpin loop (human) (UniProt P07814); experiment: co-IP; Flag-tagged EPRS1 proteins in HEK293T lysate, anti-Flag M2 agarose beads 2 h at 4 °C, eluted with Flag peptide, immunoblot with anti-IARS1 or anti-LARS1
[3] = biological target: Flag-tagged full-length EPRS1 S688E (human) (UniProt P07814); experiment: as above
[4] = biological target: Flag-tagged, full-length EPRS1 wild-type protein (human) (UniProt P07814); experiment: as above
[5] = biological target: Flag-tagged full-length EPRS1 S691E (human) (UniProt P07814); experiment: as above
[6] = biological target: endogenous BRCA1 (human (endogenous in HCT116, HeLa)) (UniProt P38398); experiment: co-IP; nuclear fraction of HeLa cells, agarose conjugated with an anti-BRCA1 antibody (D-9 AC) overnight at 4 °C, endogenous proteins

By UniProt entry, the sequences of proteins in these tests, tags left out. Where a name states a change or a piece, a line headed by the entry shows the natural chain unless it says otherwise. Chains listed by the source or under a name are the forms on record and can include a tag or linker.
UniProt P38398: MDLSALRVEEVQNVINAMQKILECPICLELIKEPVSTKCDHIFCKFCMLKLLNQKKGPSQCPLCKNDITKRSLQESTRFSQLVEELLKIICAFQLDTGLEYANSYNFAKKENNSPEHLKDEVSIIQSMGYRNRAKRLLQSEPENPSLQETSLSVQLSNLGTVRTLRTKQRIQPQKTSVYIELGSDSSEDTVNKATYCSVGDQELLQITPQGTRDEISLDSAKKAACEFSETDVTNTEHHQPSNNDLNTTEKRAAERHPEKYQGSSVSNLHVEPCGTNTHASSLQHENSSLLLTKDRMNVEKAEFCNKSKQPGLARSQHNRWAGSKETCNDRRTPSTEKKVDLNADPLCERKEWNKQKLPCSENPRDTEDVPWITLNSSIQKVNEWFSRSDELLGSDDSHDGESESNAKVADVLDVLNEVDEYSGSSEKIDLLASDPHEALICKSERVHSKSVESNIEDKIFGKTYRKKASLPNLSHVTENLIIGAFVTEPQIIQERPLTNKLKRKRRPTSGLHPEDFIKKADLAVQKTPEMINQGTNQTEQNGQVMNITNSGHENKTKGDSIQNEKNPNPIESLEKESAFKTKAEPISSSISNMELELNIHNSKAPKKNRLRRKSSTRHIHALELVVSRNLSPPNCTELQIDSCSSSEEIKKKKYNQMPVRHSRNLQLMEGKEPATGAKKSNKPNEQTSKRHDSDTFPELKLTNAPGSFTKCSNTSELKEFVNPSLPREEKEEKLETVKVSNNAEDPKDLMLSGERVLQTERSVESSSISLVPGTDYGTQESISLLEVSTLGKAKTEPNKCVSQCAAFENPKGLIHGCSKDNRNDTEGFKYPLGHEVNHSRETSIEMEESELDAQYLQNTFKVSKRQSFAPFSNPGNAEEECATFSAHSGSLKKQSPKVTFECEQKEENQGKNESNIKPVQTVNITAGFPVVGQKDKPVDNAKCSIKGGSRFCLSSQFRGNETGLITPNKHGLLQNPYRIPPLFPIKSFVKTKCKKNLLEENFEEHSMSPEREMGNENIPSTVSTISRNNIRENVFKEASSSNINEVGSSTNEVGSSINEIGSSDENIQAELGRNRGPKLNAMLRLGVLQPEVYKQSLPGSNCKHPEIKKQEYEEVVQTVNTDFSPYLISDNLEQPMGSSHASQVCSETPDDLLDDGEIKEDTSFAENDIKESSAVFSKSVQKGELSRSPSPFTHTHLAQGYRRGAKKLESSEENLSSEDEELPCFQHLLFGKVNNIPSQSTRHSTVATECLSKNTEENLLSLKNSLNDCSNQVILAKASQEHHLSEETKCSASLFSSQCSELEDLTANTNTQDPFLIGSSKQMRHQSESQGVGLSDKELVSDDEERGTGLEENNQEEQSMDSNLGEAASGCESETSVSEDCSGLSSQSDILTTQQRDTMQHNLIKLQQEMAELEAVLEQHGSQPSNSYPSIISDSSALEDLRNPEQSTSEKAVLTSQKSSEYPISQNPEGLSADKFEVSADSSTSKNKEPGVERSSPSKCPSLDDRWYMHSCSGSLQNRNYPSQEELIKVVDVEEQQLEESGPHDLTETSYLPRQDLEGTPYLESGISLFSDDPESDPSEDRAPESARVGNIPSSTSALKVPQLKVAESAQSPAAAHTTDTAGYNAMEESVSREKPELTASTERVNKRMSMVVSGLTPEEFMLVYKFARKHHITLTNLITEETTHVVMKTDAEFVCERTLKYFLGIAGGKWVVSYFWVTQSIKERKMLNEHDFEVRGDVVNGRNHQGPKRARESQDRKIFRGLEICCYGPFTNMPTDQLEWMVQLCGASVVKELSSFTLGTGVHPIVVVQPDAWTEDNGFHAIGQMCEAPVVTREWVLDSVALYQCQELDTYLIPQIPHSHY
UniProt P07814: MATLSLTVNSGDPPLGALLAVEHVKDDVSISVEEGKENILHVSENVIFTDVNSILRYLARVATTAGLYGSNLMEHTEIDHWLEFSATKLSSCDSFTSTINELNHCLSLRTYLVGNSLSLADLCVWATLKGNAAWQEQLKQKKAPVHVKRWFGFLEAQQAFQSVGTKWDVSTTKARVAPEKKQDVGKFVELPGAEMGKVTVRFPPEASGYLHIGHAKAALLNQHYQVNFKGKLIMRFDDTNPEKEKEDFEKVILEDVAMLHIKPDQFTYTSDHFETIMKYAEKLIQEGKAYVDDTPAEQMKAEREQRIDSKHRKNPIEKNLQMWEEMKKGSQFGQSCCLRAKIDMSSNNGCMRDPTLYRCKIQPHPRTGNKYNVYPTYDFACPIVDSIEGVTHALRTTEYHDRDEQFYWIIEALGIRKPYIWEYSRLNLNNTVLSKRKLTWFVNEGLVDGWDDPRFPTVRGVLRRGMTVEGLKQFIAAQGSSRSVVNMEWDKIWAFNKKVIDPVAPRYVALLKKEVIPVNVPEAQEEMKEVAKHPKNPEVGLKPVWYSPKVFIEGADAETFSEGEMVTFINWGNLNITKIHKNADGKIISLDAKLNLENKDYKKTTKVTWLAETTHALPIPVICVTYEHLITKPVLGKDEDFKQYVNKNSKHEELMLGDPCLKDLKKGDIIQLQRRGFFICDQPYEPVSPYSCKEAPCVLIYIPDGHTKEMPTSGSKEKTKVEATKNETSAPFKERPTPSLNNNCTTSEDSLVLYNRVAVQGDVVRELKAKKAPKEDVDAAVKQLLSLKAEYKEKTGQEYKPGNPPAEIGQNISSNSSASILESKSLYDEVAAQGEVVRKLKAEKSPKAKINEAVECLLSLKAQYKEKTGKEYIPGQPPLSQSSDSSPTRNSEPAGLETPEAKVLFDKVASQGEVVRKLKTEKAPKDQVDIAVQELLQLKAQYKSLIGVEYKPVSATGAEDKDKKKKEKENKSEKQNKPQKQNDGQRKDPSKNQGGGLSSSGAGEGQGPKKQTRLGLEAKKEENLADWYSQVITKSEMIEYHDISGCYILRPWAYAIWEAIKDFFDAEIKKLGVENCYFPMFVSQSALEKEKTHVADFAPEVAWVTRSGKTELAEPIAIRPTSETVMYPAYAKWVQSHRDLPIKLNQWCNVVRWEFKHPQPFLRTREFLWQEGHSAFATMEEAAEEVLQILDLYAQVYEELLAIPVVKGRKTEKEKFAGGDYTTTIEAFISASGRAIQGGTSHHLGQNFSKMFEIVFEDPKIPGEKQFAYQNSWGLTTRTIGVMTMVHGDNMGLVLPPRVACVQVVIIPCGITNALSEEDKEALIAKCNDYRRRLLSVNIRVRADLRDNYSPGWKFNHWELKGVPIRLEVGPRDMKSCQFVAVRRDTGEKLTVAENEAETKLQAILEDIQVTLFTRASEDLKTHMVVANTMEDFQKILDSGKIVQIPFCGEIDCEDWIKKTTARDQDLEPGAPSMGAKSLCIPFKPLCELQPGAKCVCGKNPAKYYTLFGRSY
Flag-tagged EPRS1 mutant lacking the hairpin loop (P07814, form named): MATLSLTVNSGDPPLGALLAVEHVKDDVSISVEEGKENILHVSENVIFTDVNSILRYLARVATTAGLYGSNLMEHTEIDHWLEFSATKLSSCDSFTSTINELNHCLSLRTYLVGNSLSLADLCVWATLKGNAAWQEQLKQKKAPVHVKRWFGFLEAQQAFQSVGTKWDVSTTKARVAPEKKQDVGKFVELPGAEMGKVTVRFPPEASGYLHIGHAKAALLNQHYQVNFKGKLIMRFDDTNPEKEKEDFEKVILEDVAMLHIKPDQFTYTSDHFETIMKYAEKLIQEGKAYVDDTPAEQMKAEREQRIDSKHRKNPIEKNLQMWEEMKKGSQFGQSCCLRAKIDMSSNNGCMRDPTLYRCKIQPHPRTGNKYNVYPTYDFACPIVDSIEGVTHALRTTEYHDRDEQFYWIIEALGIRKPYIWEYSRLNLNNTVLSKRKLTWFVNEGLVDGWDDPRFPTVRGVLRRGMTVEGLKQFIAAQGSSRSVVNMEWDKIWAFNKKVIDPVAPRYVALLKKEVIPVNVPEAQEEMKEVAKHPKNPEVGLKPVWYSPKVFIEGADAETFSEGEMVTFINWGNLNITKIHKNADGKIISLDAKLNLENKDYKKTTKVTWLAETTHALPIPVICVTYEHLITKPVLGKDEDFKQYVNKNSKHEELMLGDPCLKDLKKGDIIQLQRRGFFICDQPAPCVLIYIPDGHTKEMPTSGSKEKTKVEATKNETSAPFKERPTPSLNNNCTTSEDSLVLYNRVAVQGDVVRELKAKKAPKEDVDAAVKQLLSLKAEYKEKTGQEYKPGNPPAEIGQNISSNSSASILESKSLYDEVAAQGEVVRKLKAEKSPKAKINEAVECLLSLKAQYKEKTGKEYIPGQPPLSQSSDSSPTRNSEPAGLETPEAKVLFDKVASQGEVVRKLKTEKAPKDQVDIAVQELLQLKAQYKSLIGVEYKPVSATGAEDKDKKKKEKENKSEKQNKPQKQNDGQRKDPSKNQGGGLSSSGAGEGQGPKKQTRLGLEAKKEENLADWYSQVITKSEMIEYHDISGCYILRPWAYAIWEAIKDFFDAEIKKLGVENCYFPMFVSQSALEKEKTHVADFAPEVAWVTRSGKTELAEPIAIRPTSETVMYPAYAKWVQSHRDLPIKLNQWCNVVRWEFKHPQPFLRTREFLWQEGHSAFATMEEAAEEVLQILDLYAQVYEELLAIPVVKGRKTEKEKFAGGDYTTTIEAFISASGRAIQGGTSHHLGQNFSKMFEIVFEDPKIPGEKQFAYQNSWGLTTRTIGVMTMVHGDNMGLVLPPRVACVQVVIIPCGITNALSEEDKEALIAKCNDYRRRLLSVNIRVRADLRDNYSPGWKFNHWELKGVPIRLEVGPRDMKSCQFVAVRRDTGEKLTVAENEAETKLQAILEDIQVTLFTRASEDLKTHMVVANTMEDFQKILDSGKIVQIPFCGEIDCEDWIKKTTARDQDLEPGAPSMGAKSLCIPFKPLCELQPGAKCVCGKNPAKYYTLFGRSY

binding [1]: binds
binding [2]: binds weakly
binding [3]: no binding
binding [4]: binds
binding [5]: no binding
binding [6]: binds
B1: endogenous IARS1 (enzyme, UniProt P41252 1-1262)
chain: MLQQVPENINFPAEEEKILEFWTEFNCFQECLKQSKHKPKFTFYDGPPFATGLPHYGHILAGTIKDIVTRYAHQSGFHVDRRFGWDCHGLPVEYEIDKTLGIRGPEDVAKMGITEYNNQCRAIVMRYSAEWKSTVSRLGRWIDFDNDYKTLYPQFMESVWWVFKQLYDKGLVYRGVKVMPFSTACNTPLSNFESHQNYKDVQDPSVFVTFPLEEDETVSLVAWTTTPWTLPSNLAVCVNPEMQYVKIKDVARGRLLILMEARLSALYKLESDYEILERFPGAYLKGKKYRPLFDYFLKCKENGAFTVLVDNYVKEEEGTGVVHQAPYFGAEDYRVCMDFNIIRKDSLPVCPVDASGCFTTEVTDFAGQYVKDADKSIIRTLKEQGRLLVATTFTHSYPFCWRSDTPLIYKAVPSWFVRVENMVDQLLRNNDLCYWVPELVREKRFGNWLKDARDWTISRNRYWGTPIPLWVSDDFEEVVCIGSVAELEELSGAKISDLHRESVDHLTIPSRCGKGSLHRISEVFDCWFESGSMPYAQVHYPFENKREFEDAFPADFIAEGIDQTRGWFYTLLVLATALFGQPPFKNVIVNGLVLASDGQKMSKRKKNYPDPVSIIQKYGADALRLYLINSPVVRAENLRFKEEGVRDVLKDVLLPWYNAYRFLIQNVLRLQKEEEIEFLYNENTVRESPNITDRWILSFMQSLIGFFETEMAAYRLYTVVPRLVKFVDILTNWYVRMNRRRLKGENGMEDCVMALETLFSVLLSLCRLMAPYTPFLTELMYQNLKVLIDPVSVQDKDTLSIHYLMLPRVREELIDKKTESAVSQMQSVIELGRVIRDRKTIPIKYPLKEIVVIHQDPEALKDIKSLEKYIIEELNVRKVTLSTDKNKYGIRLRAEPDHMVLGKRLKGAFKAVMTSIKQLSSEELEQFQKTGTIVVEGHELHDEDIRLMYTFDQATGGTAQFEAHSDAQALVLLDVTPDQSMVDEGMAREVINRIQKLRKKCNLVPTDEITVYYKAKSEGTYLNSVIESHTEFIFTTIKAPLKPYPVSPSDKVLIQEKTQLKGSELEITLTRGSSLPGPACAYVNLNICANGSEQGGVLLLENPKGDNRLDLLKLKSVVTSIFGVKNTELAVFHDETEIQNQTDLLSLSGKTLCVTAGSAPSLINSSSTLLCQYINLQLLNAKPQECLMGTVGTLLLENPLGQNGLTHQGLLYEAAKVFGLRSRKLKLFLNETQTQEITEDIPVKTLNMKTVYVSVLPTTADF

From article PMC9643514
